Laboratory results published in PubChem BioAssay (NCI).
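Interpolation was linear, between the two tested concentrations surrounding the appropriate level; five concentrations were tested over 48 hours in 96-well plates. At the GI50, growth is halved. Definition used: TGI = concentration required for complete inhibition of growth.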

System: NCI-H322M lung
Assay: NCI tumour cell line growth inhibition, 48 h

Row | Compound | GI50 [µM] | TGI [µM]
1 | CCOC(=O)c1c(NC(=O)c2cccc(C(F)(F)F)c2)sc2c3c(ccc12)OCN(C)C3 | 1.69 | 3.09
2 | O=C(CSc1nnc(-c2ccc(Cl)cc2)n1-c1ccccc1)Nc1ccc(Cl)cc1 | 3.58 | > 100
